Results from PubChem BioAssay AID1461 (National Center for Advancing Translational Sciences (NCATS), 2008).
The campaign covered roughly 220,000 compounds. About 2,300 (1%) were called active. This list was built around the results that the source calls inconclusive (neither active nor inactive); the mix of calls is not that of the screen. Calls come from the whole dose curve; as a rule, active = well fitted inhibition curve with a large enough effect; inconclusive = small, poorly fitted or top-dose-only effect, or effect the other way; inactive = no such curve, though single readings can be large or run the other way. No potency is given beside an inconclusive call; the fits are too rough.

Molecular target: Neuropeptide S receptor (Homo sapiens) (UniProt Q6W5P4)
Assay: qHTS Assay for Antagonists of the Neuropeptide S Receptor: cAMP Signal Transduction; note: nearly all actives have a fitted effect of over 50% in size
Conditions: CHO-NPSR cells, cAMP TR-FRET, antagonist mode; series mostly up to 38.3 µM
Potency is the fitted concentration of half-maximal effect; tags give direction and shape of the fitted curve.

UniProt Q6W5P4, sequence (Q6W5P4 whole entry, looked up): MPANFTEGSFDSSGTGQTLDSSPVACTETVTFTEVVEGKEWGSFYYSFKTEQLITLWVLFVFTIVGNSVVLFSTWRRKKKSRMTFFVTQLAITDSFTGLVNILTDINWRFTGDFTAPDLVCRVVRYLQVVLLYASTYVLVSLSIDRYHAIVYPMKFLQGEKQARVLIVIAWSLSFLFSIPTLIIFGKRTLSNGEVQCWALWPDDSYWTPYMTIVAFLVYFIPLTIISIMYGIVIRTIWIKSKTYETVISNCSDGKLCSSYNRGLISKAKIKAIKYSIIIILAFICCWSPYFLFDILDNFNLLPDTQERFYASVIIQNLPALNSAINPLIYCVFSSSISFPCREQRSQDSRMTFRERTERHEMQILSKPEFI

| Compound | Potency |
| --- | --- |
| COc1cccc(N2CCN(c3ncnc4c3[nH]c3ccc(F)cc34)CC2C)c1 (configuration not stated) | active: 2.51 µM |
| Cc1ccnc(NC(c2cccnc2)c2ccc3cccnc3c2O)c1 (configuration not stated) | inactive |
| CCc1nnc(NC(=O)CSc2nc(-c3ccc(F)cc3)cc(-c3ccccc3)c2C#N)s1 | active: 7.94 µM |
| COc1cc(/C=N/OCC(=O)NC23CC4CC(CC(C4)C2)C3)ccc1OCc1ccccc1 | inconclusive [inhibitor, single point] |
| N#Cc1c(NC(=O)c2ccc(Cn3cc(Br)cn3)o2)sc2c1CCCCC2 | inconclusive [inhibitor, partial curve] |
| COc1ccc(NS(=O)(=O)c2ccc(C)c(NC(=O)c3ccc(C)c(S(=O)(=O)N4CCOCC4)c3)c2)cc1 | inactive |
| COc1ccc(Cl)cc1NC(=O)CC(C)c1ccccc1 (configuration not stated) | inconclusive [inhibitor, single point] |
| c1ccc(-c2nnc(-c3ccccn3)nc2NC2CCCCC2)cc1 | active: 10 µM |
| O=[N+]([O-])C(/C=C(/Cl)[N+](=O)[O-])=C(N1CCCCC1)N1CCCCC1 | inconclusive [activator, single point] |
| Cc1[nH]c2ccccc2c1/C=N/Nc1ccccc1[N+](=O)[O-] | active: 10 µM |
| O=C(COC(=O)c1ccc([N+](=O)[O-])s1)NCc1ccccc1 | inactive |
| O=C1/C(=C\c2ccc3c(c2)OCO3)CCC/C1=C/c1ccc2c(c1)OCO2 | inactive |
| CCC(c1nnnn1C1CCCC1)N(Cc1cccs1)Cc1cc2cccc(C)c2[nH]c1=O (configuration not stated) | inconclusive [inhibitor, partial curve] |
| Nn1c(SCC(=O)Nc2ccc3c(c2)OCO3)nnc1C1CCCCC1 | inactive |
| O=C(NC12CC3CC(CC(C3)C1)C2)c1ccccc1O | inconclusive [inhibitor, single point] |
| Cn1c(NCc2ccco2)nc2c1c(=O)n(Cc1ccc(Cl)c(Cl)c1)c(=O)n2C | inconclusive [inhibitor, single point] |
| Cc1noc(C)c1CSc1nc2ccccc2c(=O)n1-c1ccc(F)cc1F | inconclusive [inhibitor, single point] |
| CCOc1nc2ccccc2nc1C | inactive |
| O=C(CCCCC(=O)N1CCN(c2ccccc2)CC1)N1CCN(c2ccccc2)CC1 | inconclusive [inhibitor, single point] |
| CCCC1=Nc2cc(C(=O)NCCCOCC)ccc2Sc2ccccc21 | inconclusive [activator, full curve] |
| O=C(c1nn(Cc2ccccc2)c(=O)c2ccccc12)N1CCN(C/C=C/c2ccccc2)CC1 | inconclusive [inhibitor, partial curve] |
| O=C(/C=C/c1ccco1)NC(=S)Nc1nc(-c2ccc3ccccc3c2)cs1 | active: 1.26 µM |
| CC(C)COc1ccc(CNC(=S)N/N=C/c2ccc([N+](=O)[O-])cc2)cc1 | inconclusive [inhibitor, single point] |
| COc1cccc(C(C(=O)Nc2ccc(F)cc2)N(C(=O)Cn2nnc3ccccc32)C2CC2)c1 (configuration not stated) | inconclusive [inhibitor, single point] |

| Compound | Potency |
| --- | --- |
| COC(=O)c1c(NC(=O)C2(C)Cc3ccccc3C(=O)O2)sc2c1CCCC2 (configuration not stated) | inconclusive [inhibitor, single point] |
| O=C(Cc1ccc2c(c1)CCCC2)Nc1ccc2ccccc2c1 | inactive |
| Cc1ccc(C(=O)N2CCN3C(=O)c4ccccc4C23c2ccc(Cl)cc2)cc1 (configuration not stated) | inconclusive [inhibitor, single point] |
| CC(C)(C)c1ccc(NC(=O)c2ccsc2)cc1 | inactive |
| O=C(Nc1ccccc1)c1ccccc1NC(=O)C1CCCCC1 | inactive |
| O=C(Nc1ccc(Cl)cc1C(F)(F)F)C(Sc1nnc(-c2cccs2)o1)c1ccccc1 (configuration not stated) | inactive |
| CC#C[C@]1(O)CC[C@H]2[C@@H]3CCC4=CC(=O)CCC4=C3[C@@H](c3ccc(N(C)C)cc3)C[C@@]21C | active: 12.6 µM |
| COc1ccc(Oc2nc(-c3ccccc3)ncc2S(=O)(=O)c2ccccc2)cc1 | inconclusive [inhibitor, partial curve] |
| O=C(NCC1COc2ccccc2O1)C1CCN(S(=O)(=O)c2cccc3nsnc23)CC1 (configuration not stated) | inactive |
| CCCc1cc(-c2n[nH]c(=S)n2CC)cs1 | inactive |
| Cc1cccc(N2CCN(C(=S)Nc3ccc4nc5n(c(=O)c4c3)CCCCC5)CC2)c1C | inactive |
| CN(C)S(=O)(=O)c1cccc(NC(=S)Nc2cc(Cl)cc(Cl)c2)c1 | inconclusive [inhibitor, single point] |
| O=C(NC1CCCCC1)C(c1ccc2ncccc2c1)N(Cc1ccc2c(c1)OCO2)C(=O)c1cccs1 (configuration not stated) | inconclusive [inhibitor, partial curve] |
| CCOc1ccccc1N1CCN(C(=O)Nc2ccc(Cl)c(Cl)c2)CC1 | inconclusive [inhibitor, partial curve, poor fit] |
| Cc1cc(C(=O)CN2C(=O)C3CC=CCC3C2=O)c(C)n1-c1ccccc1 (configuration not stated) | inactive |
| COc1cc2c3nnc(-c4ccc(F)cc4)c-3cn(Cc3ccc(C)cc3)c2cc1OC | inconclusive [inhibitor, single point] |
| CC(C)(C)OC(=O)NCCCCCc1nnc(SCC(=O)Nc2cccc(Cl)c2)o1 | inactive |
| CCCn1c(SCC(=O)Nc2cccc(S(=O)(=O)N(C)C)c2)nc2ccccc2c1=O | inactive |
| COc1ccc(Nc2nc(C)c(-c3ccccc3)s2)cc1 | inconclusive [inhibitor, partial curve] |
| Oc1ccccc1-c1cc(C(F)(F)F)[nH]n1 | inactive |
| COC(=O)c1ccc(COC(=O)c2ccc(N(C)C)cc2)cc1 | inactive |
| Cn1c(=O)c2c(nc(SCC(=O)NC34CC5CC(CC(C5)C3)C4)n2C)n(C)c1=O | inconclusive [inhibitor, single point] |
| COc1cc2c(cc1OC)C(c1ccc(-c3ccccc3Cl)o1)=NCC2 | inconclusive [inhibitor, single point] |
